Values marked as one replicate rest on one cluster of the flow cell; about a third of the high ones do not repeat.
System: ATP
Assay: switch fluorescence ratio, 500 uM ATP over buffer (Cy3 cluster intensity, sum of 5 cycles each) (fold (ratio)); higher = stronger signal-on switching upon ATP binding; sequences stand for … in TCGTCGGCAGCGTCAGATGTGTATAAGAGACAGTTTTTTTTTTTTTTTTTTTTTTTTT…TC
Conditions: aptamer strand: ATP DNA aptamer (quencher-CACCTGGGGGAGTATTGCGGAGGAAGG + anchor), 100 nM annealed; ATP concentration: 500 uM; one replicate
In short: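 Cy3-labelled switching-strand clusters on a modified Illumina MiSeq flow-cell were annealed to 100 nM quencher-labelled ATP aptamer, imaged in selection buffer, then imaged after 15 min with 500 uM ATP at 22 °C. Five buffer/ATP cycles ran, with NaOH stripping and re-annealing between them. The fluorescence ratio is summed target-cycle over summed buffer-cycle Cy3 intensity per cluster, averaged per switch-domain sequence. Clusters outside 100-1000 RFU were excluded.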
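Note: ATP exposure 15 min at 22 °C before imaging.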

Sequence | switch fluorescence ratio
CATTTGGCC | 1.01
ACACCGAGAC | 1.56
GCATTACATC | 1.11
GACGTTGTGT | 1
TTCCGCTTCT | 1.43
TTGTTACAGC | 1.04
CGTAGTCATC | 1.24
AGTATACAAT | 0.973
CTGGAGAGTT | 0.95
TTTGCTCAGT | 0.98
CCCCCGTGGC | 3.3
CAGGGGTCCA | 1.03
ACAACCCCGG | 1.35
ATGCAAAAA | 1.01
GGTTTAGTAG | 0.962
CTACTTTGAA | 0.953
ACAACTTCGG | 1.05
GAATTAGTCC | 0.986
GATCACTTCG | 1
GTCCCGGCGA | 1.14
AATAGGCATT | 0.978
TACAGCATGT | 0.953

Sequence | switch fluorescence ratio
GCTAGGTTGT | 0.996
CGCGGTACT | 3.39
AAACTTCGTC | 1.23
TATTGGTGAT | 1.01
TGCTTCATC | 1.07
TAACCGCCAG | 1.3
CACGGTATTC | 1.22
AGGTCCAAAG | 1.04
CTTTGTGCTA | 1.03
CTAACGTTTC | 1.14
GCTCTCAATG | 1.19
CAAGCGTCTC | 0.991
TTCACAATGT | 1.05
GGTTATTCGT | 0.991
CGTTGTGTTT | 0.977
ACCCCTGCTT | 1.01
AAGATATAGG | 1.02
TCGCATAAGG | 1.28
TAAATATTGA | 1.01
GAGGAGGAAA | 1.01
GGCGTCCGGG | 0.993
AGGTAGTAAA | 0.981

Sequence | switch fluorescence ratio
GTTTGTCACT | 1.01
GGTAATGCAT | 0.949
CTGGGGACAG | 0.946
ACAAGTGGGG | 1.04
GACCAATTAG | 1.01
TGCTTTGACA | 0.978
AAACGGTCGC | 0.996
CAGCACGGGC | 1.03
ACGTCATTAC | 4.19
TCCCCGTGGC | 2.86
CTCGGGCATA | 1.93
TGAAGGTATG | 0.986
CAGGGGAGT | 1.03
GCCGCCCCTT | 0.975
CGAGTGTGCA | 1.02
CGGTGAAACC | 1.02
ATAAAGAGTT | 1.03
ACGAGTTATC | 1.02
TCGCCTAGTG | 1.04
AGTCGCATCC | 1.15
CTCTGAAAAG | 1
TGGTGCCATT | 1.01

Sequence | switch fluorescence ratio
CGGGGCGCA | 1.02
AGTCTTATGG | 1.3
TTATACTAAA | 1.01
TTTTGCTTAG | 1.01
GACTGGATTT | 1.08
TGGATGGGAC | 0.966
TACTAGGTCA | 1
AGTGCCTGTG | 1.1
AAAGTAACGG | 1.2
ATATTAAGCA | 0.961
AAGATGTCAC | 1.01
GGATACGGAG | 1.01
TTGGTCGGTA | 1
TCGCGGAAGA | 1.03
CCTGGTTGAG | 0.951
AATGACGCTT | 1.06
AGGTTCAGAT | 0.975
CGAGAGCGAG | 1.05
ACCGGCTTGG | 0.953

From the supplement of paper PMC10126150
